Reference: PubChem BioAssay AID624417 (National Center for Advancing Translational Sciences (NCATS), 2012)
Screen size: about 410,000 compounds; about 6,400 (1.6%) were called active. Inconclusive results, whose numbers are uncertain, are shown with a selection of clear calls. The call rests on the fitted dose curve; in most records, active means well fitted inhibition curve with a large enough effect; inconclusive means small, poorly fitted or top-dose-only effect; inactive means no such curve, though single readings can be large or run the other way. No potency is given beside an inconclusive call; the fits are too rough.

target: Glucagon-like peptide 1 receptor (Homo sapiens) (UniProt P43220); assay: qHTS of GLP-1 Receptor Inverse Agonists (Inhibition Mode); details: HEK293 GLP-1R CRE-luciferase, luminescence, 24 h, GLP-1R form is constitutively active; activity change, negative = inhibition: at 38.3 µM (top of the series) unless noted; further: nearly all actives have a fitted effect of over 55% in size
Chain of UniProt P43220 (P43220 whole entry, looked up): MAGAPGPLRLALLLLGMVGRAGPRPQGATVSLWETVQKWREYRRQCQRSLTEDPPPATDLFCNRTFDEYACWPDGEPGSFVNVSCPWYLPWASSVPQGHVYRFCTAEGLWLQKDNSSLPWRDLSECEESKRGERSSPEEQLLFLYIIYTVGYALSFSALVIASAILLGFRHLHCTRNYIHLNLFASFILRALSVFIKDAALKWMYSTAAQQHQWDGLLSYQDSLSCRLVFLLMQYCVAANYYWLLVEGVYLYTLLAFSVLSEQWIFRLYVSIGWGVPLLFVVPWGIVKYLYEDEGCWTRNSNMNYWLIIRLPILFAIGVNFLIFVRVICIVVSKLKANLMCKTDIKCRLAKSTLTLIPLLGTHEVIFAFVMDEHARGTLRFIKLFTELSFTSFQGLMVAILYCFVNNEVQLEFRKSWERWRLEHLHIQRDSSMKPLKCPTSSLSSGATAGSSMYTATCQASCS
Summary of the method: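 Inverse agonism was detected as reduced cAMP-driven luciferase luminescence after 24 h compound treatment. The cells were HEK293 clones expressing constitutively active human GLP-1R with the reporter. Reporter-only and GPR119 cell lines served as counterscreen controls.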
On the % scale 0 is the no-effect control and ±100 the full control effect; potency means the concentration at half of the fitted maximal effect; tags describe the fitted curve by direction and shape.

| Compound | Potency | activity change, negative = inhibition |
| --- | --- | --- |
| COC(=O)c1cc(NS(=O)(=O)c2ccc(N3CCCCC3)c([N+](=O)[O-])c2)cc(C(=O)OC)c1 | inconclusive [inhibitor, single point] |  |
| CCOCCCNC(=O)C(c1ccc(Cl)cc1)N(Cc1cccs1)C(=O)c1ccccn1 (stereo unspecified) | inconclusive [inhibitor, single point] |  |
| COc1ccc(NC(=O)CN(c2ccc([N+](=O)[O-])cc2)S(=O)(=O)c2ccccc2)c(OC)c1 | inconclusive [inhibitor, single point] |  |
| CC(C)NC(=O)c1[nH]nc2c1CCc1ccccc1-2 | inconclusive [inhibitor, single point] |  |
| CCc1nc2c(OCCC3CCCCC3)cccn2c1N(C)C(=O)c1ccco1 | inconclusive [inhibitor, partial curve, poor fit] |  |
| COc1ccc([C@@H]2[C@@H]3C(=O)N(C(C)(C)C)C(=O)[C@@H]3[C@]3(C)C(=O)N(c4ccc(C(F)(F)F)cc4)C(=O)N23)cc1 | inconclusive [inhibitor, partial curve, poor fit] |  |
| O=S(=O)(NCCNc1ncc(C(F)(F)F)cc1Cl)C(F)(F)F | inconclusive [inhibitor, single point] |  |
| O=C1NN=C(c2ccc(Br)cc2)CC1c1ccc(Cl)cc1 (stereo unspecified) | inconclusive [inhibitor, partial curve] |  |
| CCOc1ccc(NC(=O)CN(C)c2ccc(S(=O)(=O)N(C(C)C)C(C)C)cn2)cc1OCC | inconclusive [inhibitor, single point] |  |
| Cc1ccc(Cl)cc1-n1c(=O)c2sc3ccccc3c2n(Cc2ccccc2)c1=O |  | inactive: 3.6% |
| OC1(c2ccc3ccccc3c2)CCN(Cc2ccccc2)C1 (stereo unspecified) | inconclusive [inhibitor, partial curve, poor fit] |  |
| Nn1cnnc1N/N=C/c1ccc(F)cc1 | inconclusive [inhibitor, single point] |  |
| CC1CCCN(CCCNC(=O)c2coc3nc4ccccc4nc23)C1 (stereo unspecified) |  | inactive: 5.41% |
| COc1cc(-c2nnc(-c3cc(OC)c(OC)c(OC)c3)o2)cc(OC)c1OC |  | inactive: 0.241% |
| O=C1CC(c2ccco2)Cc2nc(N3CCN(Cc4ccc5c(c4)OCO5)CC3)ncc21 (stereo unspecified) | inconclusive [inhibitor, single point] |  |
| OC1(c2cccc(C(F)(F)F)c2)CCN(Cc2nnnn2CCc2ccccc2)CC1 | inconclusive [inhibitor, single point] |  |
| CC(C)Cn1c2c(c(O)c(C(=O)Nc3ncccc3O)c1=O)CCCC2 | inconclusive [inhibitor, partial curve, poor fit] |  |
| CN(C)c1ccc(CC(=O)N2CCCC(c3cc(C(=O)Nc4ccc(C(C)(C)C)cc4)no3)C2)cc1 (stereo unspecified) | inconclusive [inhibitor, partial curve, poor fit] |  |
| O=S(=O)(c1ccc2nnn(O)c2c1)N1CCOCC1 |  | inactive: -2.69% |
| C=CCn1c(SCC(C)=O)nc2sc3c(c2c1=O)CCC3 | inconclusive [inhibitor, single point] |  |
| CC1(C)C(=O)N(CC(=O)Nc2cccc(F)c2)c2ccc(S(=O)(=O)N3CCCCC3)cc21 | inconclusive [inhibitor, partial curve, poor fit] |  |

| Compound | Potency | activity change, negative = inhibition |
| --- | --- | --- |
| Cc1cc(-c2csc(NC(=O)c3cccc(S(=O)(=O)N(C)C)c3)n2)c(C)n1-c1ccccc1 |  | inactive: 16.9% |
| Cc1ccc(-c2ccc(CN3C(CC(C)C)C(=O)N(Cc4cn(CC5CCCCC5)nn4)CCS3(=O)=O)cc2)cc1 (stereo unspecified) |  | inactive: 16.3% |
| CCNC(=S)N(CCN(C)C)Cc1cc2cc(OCC)ccc2[nH]c1=O |  | inactive: 4.48% |
| CCC1Oc2ccc(C)cc2N(CC(=O)N(Cc2cccnc2)Cc2cccc(F)c2)C1=O (stereo unspecified) | inconclusive [inhibitor, single point] |  |
| CC(C)N1CCN(Cc2ccc(-c3ccccc3)cc2)CC1CCO (stereo unspecified) | inconclusive [inhibitor, partial curve, poor fit] |  |
| Cc1noc(C)c1COc1ccccc1C(=O)N1CCN(c2cccc(Cl)c2)CC1 | inconclusive [inhibitor, partial curve, poor fit] |  |
| O=C(Nc1cccc(S(=O)(=O)N2CCCC2)c1)c1cc(-c2ccccn2)nc2ccccc12 | inconclusive [inhibitor, partial curve, poor fit] |  |
| CCOc1ccc(-n2c(SCC(=O)NCc3ccco3)nc3ccccc3c2=O)cc1 | inconclusive [inhibitor, single point] |  |
| Cc1cc(C)cc(N(CCC(=O)O)S(=O)(=O)c2ccc(Cl)cc2)c1 | inconclusive [inhibitor, single point] |  |
| N#Cc1ccccc1NC(=O)Nc1cccc(Cl)c1 |  | inactive: 14.2% |
| Cc1cc(C)c2c(C)c(C(=O)NCc3ccncc3)oc2c1 |  | inactive: -11.6% |
| CCC(C)NC(=O)CSc1nc2cc3c(cc2c(=O)n1CCCCCC(=O)NCc1ccc2c(c1)OCO2)OCO3 (stereo unspecified) |  | inactive: 12.5% |
| Cc1ccc(CNC(=O)c2sccc2-n2cccc2)cc1 | inconclusive [inhibitor, single point] |  |
| COc1ccccc1C1CC(c2ccco2)=NN1c1ccccc1 (stereo unspecified) | active: 10 µM |  |
| CCC(C(=O)Nc1ccncc1)c1ccccc1 (stereo unspecified) |  | inactive: -25.7% |
| COC(=O)Cc1ccc(NC(=S)N2CCCC(CO)C2)cc1 (stereo unspecified) | inconclusive [inhibitor, partial curve] |  |
| O=C(COC(=O)c1nc(Cl)c(Cl)c(Cl)c1Cl)NCc1ccccc1 | inconclusive [inhibitor, single point] |  |
| CCOC(=O)c1ccccc1NS(=O)(=O)c1ccccc1F | inconclusive [inhibitor, single point] |  |
| CCOc1ccc(NC(=O)Cn2c(=O)n(-c3ccccc3)c(=O)c3ccc(C(=O)NCc4ccc5c(c4)OCO5)cc32)cc1 |  | inactive: -0.34% |
| Cc1ccccc1S(=O)(=O)Cc1ccc(C(=O)NC2CCC(C)CC2)o1 (stereo unspecified) | inconclusive [inhibitor, partial curve, poor fit] |  |
